Source: the supplement of paper PMC10369915
Some of the results follow. No stated cut-off is given here; in the data, active = 3.2 or more and inactive = the rest. The signal is at background level for most entries.

target: SHP2 C-SH2 domain E139D; test: enrichment score (SH2-bound / input frequency) (ratio); bacterial display of known human phosphotyrosine sites (pTyr-Var adds point mutants) read by sequencing; higher = stronger binding; tyrosines were phosphorylated by kinases first; conditions: peptide library: pTyr-Var
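Further: displayed peptides selected on beads carrying the immobilized SH2 domain, with library peptides lacking any tyrosine serving as negative controls.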

Enrichment score, inactive:
YPKVRYHWLVL [APTX_Y214_A212V] 1.94
VIKDKYPKVRY [APTX_Y209_A212V] 1.43
MTEEQYIKMNR [ARFGEF2_Y797_K794E] 0.705
ESLSSYWESAK [APOC2_Y47] 1.05
TDHLQYFDSNK [ARAP1_Y359_R358Q] 1.12
VFPIDYYFPPQ [AR_Y552_L548F] 1.24
TSSSSYFDEPV [ARFGAP3_Y356] 0.678
TDHLRYFDSNK [ARAP1_Y359] 0.929
MTKEQYIKMNQ [ARFGEF2_Y797_R802Q] 0.768
CSKRFYQLTKL [AR_Y858_R855K] 0.724
PKKKQYTSIHH [APP_Y728_L723P] 1.76
LKKKQYTSIHH [APP_Y728] 1.53
CSRRFYQLTKL [AR_Y858] 0.322
GGRIDYIAGLD [APRT_Y60] 0.72
VIKDKYPKARF [APTX_Y209_YF] 1.2
QPAGNYSLSSV [ARFGAP3_Y473] 0.74
VLPIDYFFPPQ [AR_Y552_YF] 1.28
VIKDKYPKAHF [APTX_Y209_R213H_YF] 1.08

target: SHP2 C-SH2 domain wild-type; test: as above; conditions: peptide library: pTyr-Var

Enrichment score, inactive:
YPKVRYHWLVL [APTX_Y214_A212V] 2.32
VIKDKYPKVRY [APTX_Y209_A212V] 1.29
MTEEQYIKMNR [ARFGEF2_Y797_K794E] 0.763
ESLSSYWESAK [APOC2_Y47] 0.844
TDHLQYFDSNK [ARAP1_Y359_R358Q] 0.762
VFPIDYYFPPQ [AR_Y552_L548F] 0.998
TSSSSYFDEPV [ARFGAP3_Y356] 0.541
TDHLRYFDSNK [ARAP1_Y359] 0.911
MTKEQYIKMNQ [ARFGEF2_Y797_R802Q] 0.74
CSKRFYQLTKL [AR_Y858_R855K] 1.02
PKKKQYTSIHH [APP_Y728_L723P] 0.907
LKKKQYTSIHH [APP_Y728] 1.53
CSRRFYQLTKL [AR_Y858] 0.356
GGRIDYIAGLD [APRT_Y60] 0.789
VIKDKYPKARF [APTX_Y209_YF] 1.13
QPAGNYSLSSV [ARFGAP3_Y473] 0.678
VLPIDYFFPPQ [AR_Y552_YF] 1.14
VIKDKYPKAHF [APTX_Y209_R213H_YF] 1.06

target: SHP2 N-SH2 domain L43F; test: as above; conditions: peptide library: pTyr-Var

Enrichment score, inactive:
YPKVRYHWLVL [APTX_Y214_A212V] 2.16
VIKDKYPKVRY [APTX_Y209_A212V] 1.42
MTEEQYIKMNR [ARFGEF2_Y797_K794E] 0.712
ESLSSYWESAK [APOC2_Y47] 0.637
TDHLQYFDSNK [ARAP1_Y359_R358Q] 0.902
VFPIDYYFPPQ [AR_Y552_L548F] 1.23
TSSSSYFDEPV [ARFGAP3_Y356] 0.529
TDHLRYFDSNK [ARAP1_Y359] 1.22
MTKEQYIKMNQ [ARFGEF2_Y797_R802Q] 0.656
CSKRFYQLTKL [AR_Y858_R855K] 0.589
PKKKQYTSIHH [APP_Y728_L723P] 1.49
LKKKQYTSIHH [APP_Y728] 1.57
CSRRFYQLTKL [AR_Y858] 0.347
GGRIDYIAGLD [APRT_Y60] 0.717
VIKDKYPKARF [APTX_Y209_YF] 1.26
QPAGNYSLSSV [ARFGAP3_Y473] 0.706
VLPIDYFFPPQ [AR_Y552_YF] 1.42
VIKDKYPKAHF [APTX_Y209_R213H_YF] 1.2

target: SHP2 N-SH2 domain T42A; test: as above; conditions: peptide library: pTyr-Var

Enrichment score, inactive:
YPKVRYHWLVL [APTX_Y214_A212V] 1.79
VIKDKYPKVRY [APTX_Y209_A212V] 1.17
MTEEQYIKMNR [ARFGEF2_Y797_K794E] 0.535
ESLSSYWESAK [APOC2_Y47] 0.676
TDHLQYFDSNK [ARAP1_Y359_R358Q] 0.361
VFPIDYYFPPQ [AR_Y552_L548F] 1.26
TSSSSYFDEPV [ARFGAP3_Y356] 0.54
TDHLRYFDSNK [ARAP1_Y359] 0.819
MTKEQYIKMNQ [ARFGEF2_Y797_R802Q] 0.895
CSKRFYQLTKL [AR_Y858_R855K] 0.697
PKKKQYTSIHH [APP_Y728_L723P] 1.3
LKKKQYTSIHH [APP_Y728] 1.61
CSRRFYQLTKL [AR_Y858] 0.253
GGRIDYIAGLD [APRT_Y60] 0.834
VIKDKYPKARF [APTX_Y209_YF] 1.03
QPAGNYSLSSV [ARFGAP3_Y473] 0.563
VLPIDYFFPPQ [AR_Y552_YF] 1.37
VIKDKYPKAHF [APTX_Y209_R213H_YF] 1.27

target: SHP2 N-SH2 domain T52S; test: as above; conditions: peptide library: pTyr-Var

Enrichment score, inactive:
YPKVRYHWLVL [APTX_Y214_A212V] 2.02
VIKDKYPKVRY [APTX_Y209_A212V] 1.45
MTEEQYIKMNR [ARFGEF2_Y797_K794E] 0.53
ESLSSYWESAK [APOC2_Y47] 0.638
TDHLQYFDSNK [ARAP1_Y359_R358Q] 0.74
VFPIDYYFPPQ [AR_Y552_L548F] 1.3
TSSSSYFDEPV [ARFGAP3_Y356] 0.573
TDHLRYFDSNK [ARAP1_Y359] 0.935
MTKEQYIKMNQ [ARFGEF2_Y797_R802Q] 0.705
CSKRFYQLTKL [AR_Y858_R855K] 0.85
PKKKQYTSIHH [APP_Y728_L723P] 1.33
LKKKQYTSIHH [APP_Y728] 1.53
CSRRFYQLTKL [AR_Y858] 0.281
GGRIDYIAGLD [APRT_Y60] 0.62
VIKDKYPKARF [APTX_Y209_YF] 1.29
QPAGNYSLSSV [ARFGAP3_Y473] 0.62
VLPIDYFFPPQ [AR_Y552_YF] 1.17
VIKDKYPKAHF [APTX_Y209_R213H_YF] 1.04

target: SHP2 N-SH2 domain wild-type; test: as above; conditions: peptide library: pTyr-Var

Enrichment score, inactive:
YPKVRYHWLVL [APTX_Y214_A212V] 2.24
VIKDKYPKVRY [APTX_Y209_A212V] 1.38
MTEEQYIKMNR [ARFGEF2_Y797_K794E] 0.798
ESLSSYWESAK [APOC2_Y47] 1.08
TDHLQYFDSNK [ARAP1_Y359_R358Q] 0.674
VFPIDYYFPPQ [AR_Y552_L548F] 1.02
TSSSSYFDEPV [ARFGAP3_Y356] 0.752
TDHLRYFDSNK [ARAP1_Y359] 0.756
MTKEQYIKMNQ [ARFGEF2_Y797_R802Q] 0.876
CSKRFYQLTKL [AR_Y858_R855K] 1.11
PKKKQYTSIHH [APP_Y728_L723P] 0.73
LKKKQYTSIHH [APP_Y728] 1.17
CSRRFYQLTKL [AR_Y858] 0.337
GGRIDYIAGLD [APRT_Y60] 0.721
VIKDKYPKARF [APTX_Y209_YF] 1.52
QPAGNYSLSSV [ARFGAP3_Y473] 0.61
VLPIDYFFPPQ [AR_Y552_YF] 1.05
VIKDKYPKAHF [APTX_Y209_R213H_YF] 1.21
